Some of the results follow. At the low end of the ranking the order means little.

The experiment deals with T1, GST-Rok-C97-191 (UniProt O34857).
T1 sequence: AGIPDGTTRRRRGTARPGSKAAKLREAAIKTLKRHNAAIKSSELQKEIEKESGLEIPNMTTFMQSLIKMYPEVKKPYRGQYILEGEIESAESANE
The experiment is described as follows: protein binding microarray.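 Also: rank score from −0.5 (least bound) to 0.5 (best bound).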 To be noted: Rok is a gene silencer of Bacillus subtilis; high values mean tight binding; most listed sequences are background and not binding sites; double strand, one strand shown.
ATGTTATC registered a binding signal of 0.139 E-score.

ATACACAC: the binding signal worked out at 0.00608 E-score.

With AAAGGCCG, the binding signal is -0.286 E-score.

Regarding GAGCCAAA, the binding signal is -0.195 E-score.

Regarding CCTCCAAC, the binding signal is -0.157 E-score.

As for CCGCTCTC, the binding signal was -0.292 E-score.

Regarding AATCCAGG, the binding signal was -0.117 E-score.

With CTCCTCTA, the binding signal was -0.0219 E-score.

AGGTCGGG: the binding signal was -0.237 E-score.

As to CTTATTGC, the binding signal was -0.0468 E-score.

On to AGATGATA, for which the binding signal came to 0.237 E-score.

Sequence AACATTGC gave a binding signal of 0.181 E-score.

As for CATGCCAG, the binding signal is -0.171 E-score.

In the case of CACAAAAC, the binding signal was -0.0127 E-score.

Take AGCTATTG: the binding signal came out at 0.145 E-score.

Take ACGGTTGC: the binding signal is -0.0207 E-score.

AGCCGAAC: the binding signal is -0.058 E-score.

With ACGTCGAG, the binding signal came out at 0.0934 E-score.

Turning to AGAGCTCT, the binding signal was -0.214 E-score.

Sequence AGTTCGGG had a binding signal of 0.0887 E-score.

With GCGAATCC, the binding signal is -0.0262 E-score.

As to CGTGGCGC, the binding signal is -0.314 E-score.

In the case of CCGTCAGC, the binding signal is -0.377 E-score.

As to AATAGCCC, the binding signal was -0.0136 E-score.

The sequence ATATCAAC returned a binding signal of 0.215 E-score.

ACTAGACG yielded a binding signal of 0.0634 E-score.

As for AGAAAGCC, the binding signal is 0.0693 E-score.

Take CTAACCAA: the binding signal was 0.0439 E-score.

ATGAGGAA: the binding signal is -0.178 E-score.

With AGTCCGAT, the binding signal was -0.123 E-score.

Take ACATTGCG: the binding signal worked out at 0.0502 E-score.

CAATCGGG: the binding signal was -0.105 E-score.

In the case of CACACTCA, the binding signal is -0.155 E-score.

On to CACCCTGG, for which the binding signal is -0.233 E-score.

As for AGAGTGCC, the binding signal was -0.13 E-score.

Consider AGTAGGGC, for which the binding signal amounted to 0.1 E-score.

Turning to GCACTGGA, the binding signal is -0.289 E-score.

As for ACTGGGGC, the binding signal was -0.241 E-score.

With ATAGGACA, the binding signal amounted to 0.0985 E-score.

In the case of AGGCGCAC, the binding signal is -0.137 E-score.

In the case of CTCCGAGC, the binding signal was -0.00815 E-score.

ATCTATTC had a binding signal of 0.088 E-score.

Regarding CATCAATA, the binding signal is -0.0332 E-score.

As to ACCACGGC, the binding signal was -0.0922 E-score.

Take GTCTAGGA: the binding signal was -0.157 E-score.

In the case of AGTCTGGC, the binding signal is -0.0228 E-score.

In turn, ACACATGA returned a binding signal of 0.133 E-score.

Regarding CGCAGTCC, the binding signal is -0.234 E-score.

Consider GCGACGAC, for which the binding signal is -0.284 E-score.

As to GCATCGCC, the binding signal is -0.276 E-score.

In the case of AGATTAGC, the binding signal came to 0.212 E-score.

Turning to AGATAAAA, the binding signal stood at 0.23 E-score.

AGTCCGTA: the binding signal was determined as 0.0589 E-score.

On to GTGTCGCA, for which the binding signal was -0.177 E-score.

As to GACCCCAC, the binding signal is -0.316 E-score.

As to CTCTTGCC, the binding signal was -0.152 E-score.

Regarding ATACCGCC, the binding signal came to 0.0537 E-score.

As for ATCTATGG, the binding signal was 0.243 E-score.

In turn, CTAATGTA came in with a binding signal of 0.185 E-score.

Consider ACACGCAC, for which the binding signal is -0.0614 E-score.

With CAACGAGA, the binding signal is 0.0419 E-score.

For AGTGGTAC, the binding signal came out at 0.202 E-score.

Consider GGCGCACA, for which the binding signal was -0.176 E-score.

As to CCGCCCGA, the binding signal was -0.2 E-score.

Take GTAGTCAC: the binding signal was -0.0737 E-score.

For the sequence CCCCATGC, the binding signal was -0.336 E-score.

As to GACTTCGA, the binding signal was -0.015 E-score.

As for ACGTCTGC, the binding signal was -0.0679 E-score.

In turn, AAAGTGAT showed a binding signal of 0.00366 E-score.

Take CCGCGCAC: the binding signal is -0.349 E-score.

For CGGGTACG, the binding signal was -0.0523 E-score.

As to AGATCCAT, the binding signal came out at 0.0146 E-score.

For the sequence CCCACTTA, the binding signal amounted to 0.0808 E-score.

In the case of AGGGTAGA, the binding signal is 0.0919 E-score.

On to CAGCCTTC, for which the binding signal was -0.302 E-score.

As for AGACACTG, the binding signal was -0.0905 E-score.

As for GTATGCAC, the binding signal is -0.112 E-score.

Regarding AGTTCGAG, the binding signal turned out to be 0.141 E-score.

Turning to AGCCCTCC, the binding signal was -0.294 E-score.

For the sequence GGCAAAGA, the binding signal is -0.188 E-score.

In turn, AGGTGTAT showed a binding signal of 0.188 E-score.

In turn, ATAGATGA displayed a binding signal of 0.0596 E-score.

With GAGCTCCC, the binding signal is -0.153 E-score.

Sequence GGTTAAAA returned a binding signal of 0.121 E-score.

The sequence ATAGCCAC showed a binding signal of 0.0249 E-score.

Consider CCTTAAAC, for which the binding signal was -0.218 E-score.

Take CTGCGCGC: the binding signal was -0.118 E-score.

Regarding GCGGATAA, the binding signal was -0.00117 E-score.

The sequence CGAAGGTA displayed a binding signal of 0.0456 E-score.

On to CCCGGACG, for which the binding signal was -0.305 E-score.

With CAGTCGTC, the binding signal was -0.184 E-score.

For GAGTCTGC, the binding signal was -0.311 E-score.

Take TTCGAAAA: the binding signal is -0.0651 E-score.

Sequence GTGGTATA had a binding signal of 0.271 E-score.

Consider TAATGCTA, for which the binding signal came out at 0.221 E-score.

Regarding CTGTCTGC, the binding signal is -0.129 E-score.

On to AACTTGGG, for which the binding signal is -0.0135 E-score.

Consider AGCTAGGA, for which the binding signal was -0.00935 E-score.

In the case of CTGAGATA, the binding signal came to 0.0982 E-score.

CGTATTCC yielded a binding signal of 0.127 E-score.

AGAATTCT: the binding signal came out at 0.283 E-score.

Consider GTACGAGA, for which the binding signal came out at 0.0751 E-score.

For the sequence CCCATAGC, the binding signal was -0.0764 E-score.

As for CATAGTGC, the binding signal is -0.076 E-score.

Turning to GAGGACGA, the binding signal is -0.327 E-score.

For ATATCAGC, the binding signal was -0.037 E-score.

For the sequence CGCTAAGA, the binding signal is 0.00882 E-score.

As for TGTGCGAA, the binding signal is -0.197 E-score.

On to GGATCCCA, for which the binding signal was -0.17 E-score.

Take AGCCCGGA: the binding signal is -0.155 E-score.

In the case of AAGGATTA, the binding signal was -0.00535 E-score.

Take ATATCATC: the binding signal was determined as 0.267 E-score.

The sequence AAAGTAAC registered a binding signal of 0.0559 E-score.

Regarding ATATCATG, the binding signal worked out at 0.18 E-score.

CACGTGCC: the binding signal was -0.106 E-score.

Sequence AAATACAT gave a binding signal of 0.359 E-score.

Regarding CCGAGAGC, the binding signal is -0.243 E-score.

Sequence TACACCAA displayed a binding signal of 0.0785 E-score.

ACGCTGAG: the binding signal was -0.137 E-score.

Take AGGCATAC: the binding signal was -0.0482 E-score.

For CTGCCGTA, the binding signal is -0.00883 E-score.

In the case of AACAGGCA, the binding signal was -0.131 E-score.

On to GGGGGACA, for which the binding signal is -0.0919 E-score.

Turning to CTACCAGC, the binding signal was determined as 0.169 E-score.

For the sequence GGTCTCCA, the binding signal is -0.155 E-score.

Regarding GCATTTCC, the binding signal was -0.322 E-score.

Turning to CGCACTGA, the binding signal is -0.0641 E-score.

With AGAAATTA, the binding signal was 0.344 E-score.

With CGGTATCC, the binding signal was -0.0945 E-score.

AGGCGTAT gave a binding signal of 0.112 E-score.

As for GGAGGATA, the binding signal is -0.0638 E-score.

For the sequence ATACAGCA, the binding signal was -0.0641 E-score.

As for GAGGCCAA, the binding signal is -0.21 E-score.

Regarding GATTGTCC, the binding signal is -0.092 E-score.

CATACAAC yielded a binding signal of 0.122 E-score.

AGAACGCC had a binding signal of 0.0453 E-score.

ACGCATTA: the binding signal worked out at 0.134 E-score.

In the case of CCACTTAG, the binding signal is -0.0775 E-score.

Take GGTCGACC: the binding signal is -0.163 E-score.

In the case of AATAGCGA, the binding signal turned out to be 0.0723 E-score.

Regarding GAGCGCGC, the binding signal is -0.115 E-score.

The sequence CTGGTAAC had a binding signal of 0.0974 E-score.

CCATTATA showed a binding signal of 0.161 E-score.

In the case of AGTGTCTA, the binding signal was 0.121 E-score.

As to CCGTCAAA, the binding signal was -0.226 E-score.

Turning to ACAGTTAC, the binding signal is 0.225 E-score.

In the case of CCCGTCAG, the binding signal was -0.19 E-score.

Consider CGATGCAG, for which the binding signal came to 0.0322 E-score.

As to ATGTTCGC, the binding signal was -0.133 E-score.

In the case of GGCGGCCC, the binding signal is -0.274 E-score.

As to ACGTCGCT, the binding signal is -0.0803 E-score.

In the case of AACCCTAA, the binding signal was -0.116 E-score.

With CTCTCATA, the binding signal was -0.153 E-score.

In the case of CAGCCGAG, the binding signal was -0.172 E-score.

Regarding CCGGCCGG, the binding signal was -0.337 E-score.

Turning to ATTCATGC, the binding signal came out at 0.131 E-score.

As for CTACGGGA, the binding signal was -0.116 E-score.

Take ATATAAAT: the binding signal came out at 0.419 E-score.

For CCGCGTGC, the binding signal is -0.155 E-score.

CGCGCCTC: the binding signal was -0.466 E-score.

Sequence TACACCTA returned a binding signal of 0.212 E-score.

With CCCAGTCG, the binding signal is -0.237 E-score.

Regarding CGTACTGA, the binding signal came to 0.0539 E-score.

Regarding ATTAAATA, the binding signal is 0.211 E-score.

Regarding AGATAGGC, the binding signal was 0.141 E-score.

For ACGCAGGA, the binding signal is -0.153 E-score.

Take CCTGACAC: the binding signal was -0.29 E-score.

With CATGAAAG, the binding signal is -0.0316 E-score.

In turn, AATTTCCC showed a binding signal of 0.153 E-score.

On to ATTCGGCG, for which the binding signal is -0.168 E-score.

In the case of GACGGCGC, the binding signal was -0.357 E-score.

CGATAGAG: the binding signal was -0.176 E-score.

(Values after PMC6212790.)
